Data published in paper PMC4336329 (PLoS ONE, 2015).
Screen size: about 310,000 compounds; about 14,000 (4.5%) showed an effect of 50% or more. The effect is printed as a negative number. This is one part of the list.

Target: human ether-à-go-go-related gene (hERG) potassium channel (human, UniProt Q12809)
Test: primary screen, population patch clamp on CHO cells stably expressing hERG
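Further: peak tail current of the secondary pulse compared with the same well before compound.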

Chain of human ether-à-go-go-related gene (hERG) potassium channel (Q12809 whole entry, looked up): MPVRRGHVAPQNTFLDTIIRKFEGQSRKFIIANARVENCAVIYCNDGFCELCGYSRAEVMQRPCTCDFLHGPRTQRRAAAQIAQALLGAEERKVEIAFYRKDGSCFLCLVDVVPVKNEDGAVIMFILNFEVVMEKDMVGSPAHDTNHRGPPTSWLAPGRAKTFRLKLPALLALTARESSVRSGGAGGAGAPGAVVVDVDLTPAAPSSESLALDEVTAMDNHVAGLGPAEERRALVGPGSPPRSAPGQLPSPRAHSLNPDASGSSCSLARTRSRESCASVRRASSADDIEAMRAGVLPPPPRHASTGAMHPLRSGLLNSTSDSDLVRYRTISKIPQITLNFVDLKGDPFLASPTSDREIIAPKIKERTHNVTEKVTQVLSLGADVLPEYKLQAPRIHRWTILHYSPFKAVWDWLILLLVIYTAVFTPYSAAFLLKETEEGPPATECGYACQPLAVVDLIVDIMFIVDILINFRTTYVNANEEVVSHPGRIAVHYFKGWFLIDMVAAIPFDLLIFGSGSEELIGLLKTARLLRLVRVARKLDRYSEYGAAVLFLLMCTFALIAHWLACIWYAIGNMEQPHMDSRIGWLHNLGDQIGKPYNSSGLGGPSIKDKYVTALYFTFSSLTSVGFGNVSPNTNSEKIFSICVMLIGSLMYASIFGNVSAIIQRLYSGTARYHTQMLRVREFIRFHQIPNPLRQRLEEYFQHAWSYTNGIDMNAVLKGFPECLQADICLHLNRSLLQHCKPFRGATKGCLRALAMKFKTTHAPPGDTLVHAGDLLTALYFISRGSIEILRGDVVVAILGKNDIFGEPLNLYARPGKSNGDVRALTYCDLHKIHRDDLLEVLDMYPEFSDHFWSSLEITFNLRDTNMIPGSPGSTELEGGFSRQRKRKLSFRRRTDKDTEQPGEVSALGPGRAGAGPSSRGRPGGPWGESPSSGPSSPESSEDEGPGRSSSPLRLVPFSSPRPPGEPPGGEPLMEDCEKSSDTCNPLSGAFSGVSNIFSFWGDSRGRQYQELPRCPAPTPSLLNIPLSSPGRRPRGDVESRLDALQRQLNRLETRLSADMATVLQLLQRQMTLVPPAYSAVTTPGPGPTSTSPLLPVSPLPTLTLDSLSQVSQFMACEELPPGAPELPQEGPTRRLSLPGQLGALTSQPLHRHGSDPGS

| Compound | hERG current change (%, negative = inhibition) at 10uM [%] |
| --- | --- |
| CCOc1ccc(NC(=O)CSC2=C(C#N)C(c3ccc4c(c3)OCO4)CC(=O)N2)cc1 (centres unmarked) | -5.62 |
| Cc1sc2nc(C3CC3)nc(SCC(=O)NCc3ccco3)c2c1C | 5.51 |
| CO[C@@H]1[C@@H](OC(N)=O)[C@@H](O)C(Oc2ccc3c(O)c(NC(=O)c4ccc([O-])c(CC=C(C)C)c4)c(=O)oc3c2C)OC1(C)C.[Na+] (some centres unmarked) | -3.04 |
| O=C1C2CCCN2C(c2cccc(Cl)c2)N1c1ccccn1 (centres unmarked) | 1.1 |
| COc1cccc(CNc2ccc(S(=O)(=O)Nc3nccs3)cc2)c1O | 1.54 |
| NC(N)=NS(=O)(=O)c1ccc(NC(=S)NC(=O)c2sc3ccccc3c2Cl)cc1 | 21.1 |
| COc1cc(NC(=O)c2sc3nc(C)nc(N4CCOCC4)c3c2C)cc(OC)c1OC | 15.9 |
| CCCOC(=O)c1ccc(NC(=O)CN(C)Cc2cccs2)cc1 | 4.26 |
| CN(C(=O)COC(=O)CCc1nc2ccccc2c(=O)[nH]1)C1CCS(=O)(=O)C1 (centres unmarked) | 15.9 |
| C/C(=N\O)c1ncc(C(F)(F)F)cc1Cl | -17.9 |
| O=C(Nc1cccc(S(=O)(=O)N2CCOCC2)c1)c1c2c(nc3ccccc13)CCC2 | 1.27 |
| CCOc1ccc2nc(N3CCC(C(=O)NC4CCCCC4)CC3)sc2c1 | 11.2 |
| COc1cccc(NC(=O)CSc2nc3ccccc3c(=O)n2CCCC(=O)NCCCN2CCOCC2)c1 | -59.8 |
| Clc1cccc(Cl)c1Cn1ccc(C2CC2)n1 | -17.3 |
| CS(=O)(=O)N1CCc2cc(C(=O)OCC(=O)c3ccccc3)ccc21 | 10.1 |
| CS(=O)(=O)c1cccc(-c2nnc(NC(=O)CCS(=O)(=O)c3ccccc3)o2)c1 | 3.82 |
| CCOc1cc(C2Nc3ccccc3C(=O)N2c2ccccc2OC)ccc1O (centres unmarked) | 1.46 |
| CC1(C)CC(=O)C2=C(C1)Nc1ccccc1N1C(=O)c3ccccc3C21 (centres unmarked) | -3.07 |
| COc1ccc(-c2nc3ccccc3n2CCC(C)C)cc1OC | -30.9 |
| O=C(CSc1nc2[nH]c(=O)cc(O)c2s1)Nc1ccc(Br)cc1 | 10.4 |
| COc1ccccc1C(=O)NCCC(=O)Nc1cccc(S(=O)(=O)N2CCCC2)c1 | -5.97 |
| O=C(CCS(=O)(=O)c1ccc(Br)cc1)N1CCCCCC1 | -25.3 |

| Compound | hERG current change (%, negative = inhibition) at 10uM [%] |
| --- | --- |
| Cc1cc(C)cc(NS(=O)(=O)c2cc(C(=O)NCc3ccccn3)ccc2Cl)c1 | -16.8 |
| COc1cc(S(=O)(=O)N2CCCCC2)ccc1NC(C)=O | -9.05 |
| CCOc1ccc(-n2c(O)c(N=Nc3ccc([N+](=O)[O-])cc3)c(=O)[nH]c2=O)cc1 | 28.8 |
| Cc1c(C(=O)NCCSCc2ccco2)cccc1[N+](=O)[O-] | -5.94 |
| COC(=O)/C=C1/N/C(=N\c2nc(C)cc(C)n2)N(c2ccc(Cl)cc2)C1=O | 3.82 |
| COc1cc2c(cc1OC)C(c1ccc(Br)cc1)NC(=O)C2 (centres unmarked) | 12.1 |
| Cc1c(CN(C)CCc2ccccc2)c(=O)n(-c2ccccc2)n1C | -8.92 |
| CCC(=O)N(c1nnc(SCC(=O)NN2C(=O)NC3(CCCCC3)C2=O)s1)C1CC1 | 10.9 |
| COc1ccc(C2(CNC(=O)c3ccco3)CCOCC2)cc1 | 3.72 |
| CCC1CCCCN1C(=O)NC(=O)c1ccccc1 (centres unmarked) | 30.3 |
| CCN(CC)Cc1c(C(=O)N/N=C/c2ccccn2)nnn1-c1nonc1N | -20.8 |
| CCNC(=O)NC(=O)C(C)OC(=O)c1cc(S(=O)(=O)N2CCCCCC2)ccc1OC (centres unmarked) | -26.9 |
| NC(C(=O)O)C(c1ccccc1)C(F)F (centres unmarked) | 17.2 |
| CSc1ccc(NC(=O)NCc2ccccc2)cc1 | 19 |
| CCCCNC(=O)CSc1nnc(NC(C)=O)s1 | -10.6 |
| CN1CCC(=C2c3ccccc3C(O)c3ccccc32)CC1 (centres unmarked) | 1.49 |
| CCOc1ccc(CN(C)CC(=O)Nc2ccc(N3CCOCC3)cc2)cc1OC | -30 |
| CCOc1ccc(C2/C(=C(\O)c3ccc4c(c3)OCCO4)C(=O)C(=O)N2CCCN2CCOCC2)cc1OC (centres unmarked) | 3.69 |
| CCCn1c(=O)[nH]c(=O)c2c(C(=O)OCC)cc(-c3cccs3)nc21 | -3.67 |
| CCOC(=O)c1ccc(NC(=O)COc2ccc(S(=O)(=O)NC(C)CC)cc2)cc1 (centres unmarked) | 1.11 |
| O=S(=O)(c1ccc(N2CCN(Cc3ccc4c(c3)OCO4)CC2)nc1)N1CCOCC1 | -32.1 |
| Cc1cnc(C(=O)OCC(=O)NC2CCCC(C)C2C)cn1 (centres unmarked) | 6.02 |
